Source: the supplement of paper PMC11417369
± gives the standard deviation of the averaged measurements. This is one part of the list.

What follows are sequences tested on PfAP2-EXP AP2 domain (GST-tagged) (assay: gcPBM binding intensity (ln(normalized median fluorescence intensity)); higher = stronger DNA binding).
Outline: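 An Agilent 4 × 180k array of primer-extended double-stranded 36-bp intergenic genomic probes, with negative controls, was incubated for 1 h with GST-tagged P. falciparum DNA-binding domains expressed in E. coli. Alexa488 anti-GST antibody detected bound protein, scanned at 488 nm. Binding intensity is the highest Masliner-normalised natural-log median intensity across replicate spots of either probe orientation.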

Row | Sequence | gcPBM binding intensity (ln)
1 | CAAATTTAAAAAAAATCACACACAGAAAAAAAAAAA [CACACA_site8728] | 8.51 ± 0.45
2 | CAAGAAAATGGACACACACACATATATATATATATA [CACACA_site6010] | 10 ± 0.47
3 | TACACCCTATTTTTATGTACTTATTTGATTTACACA [XGTACX_site8172] | 8.91 ± 0.39
4 | ATATAAATACGGTGTGCACACACATAATATATATAT [CACACA_site2271] | 9.38 ± 0.071
5 | GGAAACCTTTTTTTTACACACAATATATTAATACTT [CACACA_site1403] | 8.49 ± 0.34
6 | TTTGTTTTAAATATTATACACACGTAAAAGTAGAAT [CACACA_site214] | 8.73 ± 0.38
7 | GTGTAATTATCAGCATAAATATGGTACATACATAAA [CACACA_negctrl_site323] | 8.64 ± 0.26
8 | TGTATACGCATATGTACACACATATATATGTATATG [CACACA_site3087] | 8.65 ± 0.16
9 | TTAAAAGAATATAATGCACACATTATTTTATTTTAT [CACACA_site3772] | 8.1 ± 0.2
10 | AAAAAAAACGAACACACACACATACAAAATCTATAT [CACACA_site6795] | 8.61 ± 0.6
11 | TATACGAAATTGTGCACACATATATTTATGTATGTA [CACACA_site1509] | 8.57 ± 0.2
12 | AATACATAATAACATGTACACACATTCTTCTATAAA [CACACA_site9344] | 8.54 ± 0.33
13 | TACCCACGTATATATATACACACTAATATACACCCA [CACACA_site9381] | 8.87 ± 0.65
14 | TTAAATGAAAAAATATGTACGTATAATAAGAAATAT [XGTACX_site6619] | 8.98 ± 0.38
15 | TATTTTTTCTTAAACACACACATATATATATAGAAT [CACACA_site2836] | 8.62 ± 0.53
16 | TTTTTTCTTAGTTATACATGCAAAATAAATAAATAA [TGCATGCA_site410] | 8.93 ± 0.43
17 | GTATGAGTCGTAGAGTGTACTCTGGAGAAAACTACA [XGTACX_site4942] | 8.53 ± 0.33
18 | TATATATTTATTAAATGTACATAACAAAAATGGTAT [XGTACX_site3577] | 8.91 ± 0.35
19 | ATTTATATATAATTTTGTACGAAAAAAATAAGGTAT [XGTACX_site3578] | 8.9 ± 0.41
20 | AAATAAAGTAAAATATGTACATAAATTAAAACACAT [XGTACX_site8539] | 9.13 ± 0.38
21 | TGCATACATAAATGTATATATTAATATATATCATAT [GTGCAC_negctrl_site252] | 8.33 ± 0.37
22 | CAGATAGACTTATATGCATGCATTCACCTGCCAACA [TGCATGCA_site158] | 9.89 ± 0.18
23 | ATATTACATAATATATGTACACACGCAAATACTTAT [XGTACX_site671] | 8.66 ± 0.33

Row | Sequence | gcPBM binding intensity (ln)
24 | TAAGCATAAATGTATACATGCGATGCATACACATAT [TGCATGCA_site749] | 8.25 ± 0.31
25 | ATGAAATTATATTGGGGTACGTCAAAAAAGGAGATA [XGTACX_site7451] | 9.1 ± 0.45
26 | GGGTATATATTATTATGTACACATGTATAAAATAAG [XGTACX_site2633] | 8.79 ± 0.21
27 | ATATTAAGAATAAACAGTACATATAATAAATACCAT [XGTACX_site5933] | 8.52 ± 0.085
28 | AAAAAAAAAAAAATTACACACATACATATAATAATA [CACACA_site8680] | 8.38 ± 0.46
29 | TTTGTGTATATATAATGTACATTATATTTTTATTAT [XGTACX_site6506] | 8.85 ± 0.41
30 | TATATATATGGACACACACACACATATATATATATA [CACACA_site6121] | 10 ± 0.39
31 | AAAAAAAATATACATACATGCATACATAAGTTTCTA [TGCATGCA_site998] | 8.49 ± 0.24
32 | TATAAATTTATAAATAGTACATATATTTATATATAT [XGTACX_site6433] | 8.38 ± 0.25
33 | ATTAAAAAAAAAGAGCGTACAAATAATTACTTCTTT [XGTACX_site8262] | 8.21 ± 0.21
34 | TATAAAATAAGACATGCATGTTATACATATATATTT [TGCATGCA_site156] | 8.93 ± 0.39
35 | AAACGTATGTTATTTACACACCCTTCCACTTTTATA [CACACA_site3337] | 8.53 ± 0.38
36 | ATGTTTTTTATTCTTCGTACGTATGAACGATAGTGT [XGTACX_site4225] | 8.89 ± 0.47
37 | CATTATTATTTTATAACACACACATATATATTATAT [CACACA_site8405] | 8.48 ± 0.34
38 | ATAAATACATATAAAAGTACACACACACACATATAT [XGTACX_site1744] | 9.03 ± 0.42
39 | ATGTGCAAATATTAAAGTACTAAATTTTATTATTTT [XGTACX_site7306] | 8.36 ± 0.17
40 | TGTATATGTGAAGCAAGGGATGCGGCAGACATAACA [CACACA_negctrl_site1339] | 9.26 ± 0.45
41 | TGAAATTTCAATACATGTACATATAAAAAAAAAAAA [XGTACX_site4424] | 8.69 ± 0.49
42 | AAATTAAAAAAAAATAAATAAAAAAAAAAAAAAAAT [CACACA_negctrl_site1611] | 8.16 ± 0.54
43 | TTTTTTTTTTCTACAAGTACATATTTTCATTTAACA [XGTACX_site6621] | 8.51 ± 0.33
44 | AAAAAAAAAAAAAAATGTACATATATATATTATAAA [XGTACX_site518] | 8.39 ± 0.29
45 | TAGTATTTATATGATTAACACACATATGGGTATTAA [CACACA_site8363] | 8.21 ± 0.33
46 | ATATACACCTGAGAGGTGCATATATATAAAATTTAC | 8.66 ± 0.13

Row | Sequence | gcPBM binding intensity (ln)
47 | AAAAAAAAAAAAAAAAGTACTCAATAATAATTACAT [XGTACX_site670] | 8.63 ± 0.014
48 | CATAATAGTTATAAAATACACACCAGGCATGATAAA [CACACA_site329] | 8.36 ± 0.52
49 | ATAATGTTCACATAGGTGCACTAATATAATTATCCA [GTGCAC_site9981] | 9.3 ± 0.38
50 | CCGTACAATTTTGTCACACATAAAATACTTATGTAT [CACACA_site4871] | 8.34 ± 0.36
51 | AATGTAGTTTATCGATGTACACAAAATAAAGAGAAG [XGTACX_site6956] | 9.21 ± 0.31
52 | AATATAAATATAAATATAAATAAATAAATAAATAAA [CACACA_negctrl_site291] | 8.61 ± 0.18
53 | GTAATTTTTTTCTATACACACATATATATAATATAT [CACACA_site2655] | 8.74 ± 0.32
54 | AAAGTAAAAGGGTTTGGTACACATATAATATATTAG [XGTACX_site6036] | 8.77 ± 0.46
55 | AGTAAAAGAAAGCACACACACATGTATTTATGTATG [CACACA_site5998] | 8.37 ± 0.42
56 | ATAACTTTTATTTGTACACACATACATCTATATTAT [CACACA_site6595] | 9.1 ± 0.39
57 | CATTTATATAAAGAATGTACACACAGAAATGCACAC [XGTACX_site4718] | 8.84 ± 0.35
58 | CCTTGTCTTTTTTTTTTTTTTTTTTCTTCTTATTTT [GTGCAC_negctrl_site523] | 8.56 ± 0.5
59 | ATAAAATAAGACAAAAAAAAAATATATATATATATA [TGCATGCA_negctrl_site314] | 9.99 ± 0.37
60 | AAAAAAAAAAAAAAATGTACATATATATATATATTA [XGTACX_site7330] | 8.34 ± 0.45
61 | AGTAGATATAATATATGTACATATATATATATATAT [XGTACX_site7186] | 10.1 ± 0.34
62 | AATTAATGGTTAAAGGTGCACAATACATATATTACA [GTGCAC_site9943] | 9.57 ± 0.45
63 | ATATTAAACAAACACACACACATATATATATATATA [CACACA_site3383] | 10.2 ± 0.26
64 | TGCATATACTCAAGCACACATATATATATATATATA [CACACA_site4733] | 10.2 ± 0.33
65 | TTTTTTTTTTTTTTTTTTTTTTTTTTTTTTTGGGGG [CACACA_negctrl_site1570] | 9.13 ± 0.49
66 | ATATATTGAAAATATAGTACATAATAAATGTTCTTT [XGTACX_site8474] | 8.23 ± 0.36
67 | AATAAATTTAAACACACACACACATATATATATATA [CACACA_site4621] | 10.2 ± 0.3
68 | TATATACATAAACACACACACACATATATATATATA [CACACA_site8707] | 10.2 ± 0.29
69 | AATAATATTTAATACGCACACAATAATAATATAAAA [CACACA_site1763] | 8.59 ± 0.35

Row | Sequence | gcPBM binding intensity (ln)
70 | TCTTATAAAGGTAATTGTACATATTTATAATTTCTT [XGTACX_site4847] | 8.27 ± 0.4
71 | GTGAAAGGAAAAGTTGAACACACAAAGTAAACTATA [CACACA_site9178] | 8.8 ± 0.36
72 | ATATATTATTATACATGTACATATATAGATATATAT [XGTACX_site4358] | 8.53 ± 0.35
73 | CACACGCACGAACACACACACATATAAATATAAATA [CACACA_site6299] | 8.65 ± 0.35
74 | ATATACATATAGGATGCACACATAATTCAAATACAA [CACACA_site8120] | 8.56 ± 0.43
75 | AACAATAATTTTGAATGTACATATAAATATTTTTAT [XGTACX_site5501] | 8.39 ± 0.38
76 | TATAATGGTTCTGGTGTGCACCATGACAGAATCAAG | 8.93 ± 0.11
77 | AAAAAAAAGAATAGCACACACACATATATAAATATA [CACACA_site630] | 8.64 ± 0.49
78 | ATAAATACTAAAAATGAAATATAGAAAATAGCAATA [CACACA_negctrl_site501] | 8.7 ± 0.36
79 | GTTAATTCTATGAATTGTACTTAAATATAATTATAT [XGTACX_site2785] | 8.36 ± 0.38
80 | TATAATATATTATATACACACATTATAAAATACCCA [CACACA_site4858] | 8.6 ± 0.36
81 | CAAAATAAAAATAACACACACATTTATATAAATACA [CACACA_site4790] | 8.6 ± 0.45
82 | ACAGTTAAAACAATAACACACAAAGAAAAAAAAAAA [CACACA_site737] | 8.54 ± 0.45
83 | AGGTAGAAATTGTTAAAAAATCATACATATTATATA [CACACA_negctrl_site622] | 8.22 ± 0.31
84 | TATATTTTTATTGAACGTACAAAAAGTCGAAAACAG [XGTACX_site3967] | 8.74 ± 0.3
85 | TTTAAATACAGACATACACACATACACGCACATATA [CACACA_site6400] | 8.91 ± 0.34
86 | TATATTTATTTTCTGTGTACACATATGTTGTGTATT [XGTACX_site7640] | 8.87 ± 0.45
87 | TATATGTATCCATTATGTACATAATAGTAATATAAT [XGTACX_site4008] | 8.53 ± 0.33
88 | TAAAAAATACAAGAGTGTACAAAATTTTTCTAAATG [XGTACX_site5334] | 8.59 ± 0.45
89 | AAAACCTAGTGCATTTGTACATATTTCAATTTTAAA [XGTACX_site4582] | 8.51 ± 0.099
